# In all, about 310,000 compounds went through this assay and about 14,000 (4.5%) showed an effect of 50% or more. Effects have a minus sign here. The list shows a part of the results.
# Target: human ether-à-go-go-related gene (hERG) potassium channel (human, UniProt Q12809)
# Experiment: primary screen, population patch clamp on CHO cells stably expressing hERG
# 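Further: peak tail current of the secondary pulse compared with the same well before compound.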
# human ether-à-go-go-related gene (hERG) potassium channel, sequence (Q12809 whole entry, looked up): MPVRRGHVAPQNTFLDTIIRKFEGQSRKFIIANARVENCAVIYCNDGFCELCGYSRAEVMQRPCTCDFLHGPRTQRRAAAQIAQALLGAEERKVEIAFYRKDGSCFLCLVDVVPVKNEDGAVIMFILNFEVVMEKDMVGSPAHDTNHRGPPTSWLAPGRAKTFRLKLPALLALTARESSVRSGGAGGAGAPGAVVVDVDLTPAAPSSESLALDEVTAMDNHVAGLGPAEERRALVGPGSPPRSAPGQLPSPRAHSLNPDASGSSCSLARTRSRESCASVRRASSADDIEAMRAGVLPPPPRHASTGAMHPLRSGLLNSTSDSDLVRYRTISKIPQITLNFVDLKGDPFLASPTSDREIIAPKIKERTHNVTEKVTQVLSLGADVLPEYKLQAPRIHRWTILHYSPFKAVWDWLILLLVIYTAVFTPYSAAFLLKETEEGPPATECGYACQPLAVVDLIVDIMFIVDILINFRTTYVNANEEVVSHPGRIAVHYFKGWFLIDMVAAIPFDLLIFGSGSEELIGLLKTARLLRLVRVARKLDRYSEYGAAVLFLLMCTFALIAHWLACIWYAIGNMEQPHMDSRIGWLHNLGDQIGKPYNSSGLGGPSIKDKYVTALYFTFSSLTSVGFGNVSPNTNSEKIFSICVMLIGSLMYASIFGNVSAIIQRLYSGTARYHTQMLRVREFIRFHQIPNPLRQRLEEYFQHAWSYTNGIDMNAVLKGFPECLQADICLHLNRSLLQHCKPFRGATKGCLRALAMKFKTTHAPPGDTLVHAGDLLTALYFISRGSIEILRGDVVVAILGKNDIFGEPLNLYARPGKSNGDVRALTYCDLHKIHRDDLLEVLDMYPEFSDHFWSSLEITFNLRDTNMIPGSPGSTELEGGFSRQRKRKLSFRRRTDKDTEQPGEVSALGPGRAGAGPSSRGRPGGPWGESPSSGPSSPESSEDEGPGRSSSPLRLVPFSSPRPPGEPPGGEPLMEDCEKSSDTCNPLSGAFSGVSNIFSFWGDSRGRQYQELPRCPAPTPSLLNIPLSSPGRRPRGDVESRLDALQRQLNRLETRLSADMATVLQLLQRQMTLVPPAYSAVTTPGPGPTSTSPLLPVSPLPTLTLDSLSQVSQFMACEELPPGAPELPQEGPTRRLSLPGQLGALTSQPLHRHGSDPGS
row,SMILES,"hERG current change (%, negative = inhibition) at 10uM [%]"
1,COc1cccc(Nc2nnc(Cc3cccnc3)c3ccccc23)c1,-75.8
2,CCOC(=O)N1CCN(CC(O)COc2ccccc2C(C)C)CC1.Cl (centres unmarked),-8.87
3,Cn1nc(C(C)(C)C)cc1C(=O)NNC(=O)c1cccc(Cl)c1,12.8
4,C[C@H]1CCC[C@@]2(O[C@@H](CCO)C[C@H](O)[C@H]2O)O1,16
5,COc1ccc(CC(=O)NCCc2ccc(S(N)(=O)=O)cc2)cc1,16.5
6,COC(=O)c1cccc(N(CC(=O)NC2CCCC2)C(=O)CNC(=O)c2cccs2)c1,-1.26
7,c1ccc(OCc2nc3c4c(ncn3n2)-c2ccccc2CC42CCCC2)cc1,0.954
8,CN(CC(=O)N1CCN(c2ccccn2)CC1)S(=O)(=O)c1ccccc1,-12.8
9,CC(OC(=O)C1CCC(=O)N1)C(=O)Nc1cc(Cl)cc(Cl)c1 (centres unmarked),2.72
10,COCCCNCCOc1ccc(C(C)(C)c2ccccc2)cc1.O=C(O)C(=O)O,-54.5
11,COc1ccccc1CCNC(=O)c1cnccn1,-3.36
12,O=C(CSc1cccc[n+]1[O-])c1ccc(Cl)s1,10.8
13,O=C(NCc1ccc2[nH]c3c(c2c1)CCCC3)N1CCOCC1,1.35
14,CC(NC(=O)Cn1nc(C(F)(F)F)c2c1CCC2)c1ccccc1 (centres unmarked),-5.6
15,COC(=O)C1=C(C)Nc2nnnn2C1c1ccco1 (centres unmarked),-7.62
16,O=C(CC1(O)C(=O)Nc2ccccc21)c1ccccc1O (centres unmarked),7.03
17,Cc1cccc2cc(CN(C(=O)c3cccc([N+](=O)[O-])c3)C(C)C)c(=O)[nH]c12,5.02
18,CC(=O)N1CCN(c2ccc(S(=O)(=O)N3CCCCC3)cn2)CC1,-29.7
19,COc1cc(/C=C/CN2CCN(CCC(C)C)C(CCO)C2)ccc1O (centres unmarked),23
20,O=C(COc1ccccc1)Nc1ncn[nH]1,-8.43
21,O=C(O)c1ccc(COc2ccc(CO)cc2Cl)cc1,-1.15
22,COc1ccc(Cl)cc1NC(=O)C(C)N1CCN(c2ccccn2)CC1 (centres unmarked),-18.3
23,NC1=NC[C@H](c2ccccc2)N1CCc1cc(C(F)(F)F)cc(C(F)(F)F)c1,-14.4

row,SMILES,"hERG current change (%, negative = inhibition) at 10uM [%]"
1,CCCSC1=C(C#N)C(c2ccc(OC)cc2)C2=C(CC(C)(C)CC2=O)N1 (centres unmarked),0.681
2,COc1ccccc1C(=O)NNC(=O)c1cccc(Br)c1,6.42
3,Cc1ccc(CN2C(=O)[C@H]3Cc4c([nH]c5ccccc45)C(C)(C)N3C2=O)cc1,15.7
4,CCOC(=O)/C(C#N)=C/c1c[nH]c2ccccc12,-0.909
5,O=C(CCc1ccccn1)NC1CCCc2c1cnn2-c1ccc(F)cc1F (centres unmarked),3.18
6,NC(=O)c1coc(-c2ccccc2)n1,12.9
7,CCN1CCOC(CC(=O)Nc2cccc([N+](=O)[O-])c2)C1=O (centres unmarked),-1.35
8,CCC(C(=O)OCC(=O)Nc1cc(Cl)cc(Cl)c1)c1ccccc1 (centres unmarked),29.9
9,COc1ccc(NC(=O)CSc2cc(C(=O)c3nccn3C)c3ccccc3n2)cc1,-10.7
10,O=C1CC[C@H](O)CCN1[C@H](CSc1ccccc1)Cc1ccccc1,-21.7
11,CC(OC(=O)c1ccncc1)C(=O)Nc1ccc([N+](=O)[O-])cc1Cl (centres unmarked),-32.2
12,O=C(NC(=S)Nc1ccc(Cl)cc1Cl)C1CC1,3.44
13,CCCCCCCN1CCC(=O)N([C@H](CO)c2ccccc2)CC1,-63.7
14,Cc1cc(C(=O)OCC(=O)NCc2ccco2)c(C)n1-c1ccccc1,6.07
15,COCCN(C(=S)Nc1cccc(C)c1)C(C)c1cccnc1 (centres unmarked),-4.61
16,Cc1cc(C)cc(S(=O)(=O)c2cn(C)c3cc(N4CCN(C)CC4)c(F)cc3c2=O)c1,-11.5
17,Cc1noc(C)c1COc1ccc(C(=O)OCC(=O)c2ccc3c(c2)OCCO3)cc1,5.49
18,CCC(C)NC(=O)CC(NS(=O)(=O)c1ccc(Cl)cc1)c1ccco1 (centres unmarked),5.63
19,COc1ccc(NC(=O)CCCCCn2nnc3ccccc3c2=O)cc1,16.4
20,O=C(NCC1CCCCC1)c1ccc(Cl)nc1,16.8
21,COc1cccc(-c2ccc(SCC(=O)c3ccccc3)nn2)c1,-22.1
22,COc1ccc(C(=O)Nc2ccccc2C(=O)NC(C(=O)NCc2ccco2)C(C)C)cc1 (centres unmarked),1.69
23,CCc1cc2c3c(c1)C(C)CC(C)(C)N3C(=O)/C2=C1\SC(=O)NC1=O (centres unmarked),2.96

row,SMILES,"hERG current change (%, negative = inhibition) at 10uM [%]"
1,CC1(C)CC(=O)C2=C(C1)Nc1cc(C(=O)c3ccccc3)ccc1NC2c1ccccn1 (centres unmarked),-11.6
2,Cc1ccc(N(CCC#N)C(=O)COC(=O)C2CCN(S(=O)(=O)c3ccc4c(c3)OCCO4)CC2)cc1,7.24
3,CCC(=O)c1ccc(OCC(O)CN2CCN(c3cccc(C(F)(F)F)c3)CC2)cc1 (centres unmarked),-55.2
4,C[C@H](NC(=O)c1ccco1)C(=O)Nc1ccc(S(=O)(=O)N2CCCC2)cc1,1.53
5,COC(=O)c1ccc(N2CCN(S(=O)(=O)c3ccc(Br)cc3)CC2)c([N+](=O)[O-])c1,10.6
6,CC(CNC(=O)c1cccc(Br)c1)n1cncn1 (centres unmarked),15.2
7,COc1ccc(S(=O)(=O)N2CCC(C(=O)NC3CCCCC3)CC2)cc1C,8.8
8,COC(=O)c1sc(-c2ccccc2)cc1NC(=O)c1ccc(OC)cc1,15.2
9,COc1ccc(Cc2nnc(NC(=O)c3ccc(OC)c(OC)c3)s2)cc1,14.7
10,CCc1noc(C)c1C(=O)Oc1ccc(N(C)S(=O)(=O)c2ccccc2)cc1,1.2
11,CCN(CC)CCCNc1nc2ccccc2[nH]1,-2.62
12,Cc1ccc(-n2ncc3c(Nc4c(C)n(C)n(-c5ccccc5)c4=O)ncnc32)c(C)c1,11.7
13,CC(C)(C)c1ccc(Cn2ccc(-c3ccc4c(c3)OCO4)n2)cc1,15.4
14,Cc1ccc(S(=O)(=O)N(CC(O)CN2CCOCC2)c2cccc([N+](=O)[O-])c2)cc1 (centres unmarked),-34.5
15,CCOC(=O)CSc1nnc(CNc2ccc(F)cc2)o1,-6.08
16,C=CCNc1scc(-c2ccccc2)[n+]1CC=C.[Br-],-21.4
17,N#Cc1cc(-c2ccccc2)cnc1Sc1ccc(Cl)cc1,-7.54
18,COc1cccc(-c2noc(-c3cccs3)n2)c1,-3.5
19,CCOC(=O)c1ccc(NC(=O)c2cc3ccccc3o2)cc1,-4.42
20,C/C(=N\NC(=O)c1cccc(Br)c1)c1ccccn1,7.05
21,COc1ccccc1C(CCNS(=O)(=O)c1ccc(C)cc1)c1ccco1 (centres unmarked),-0.00752
22,Cc1ccnc(Cc2ccccc2)n1,17.4
23,O=C1CC(c2c[nH]c3ccccc23)C(=O)N1 (centres unmarked),5.22

row,SMILES,"hERG current change (%, negative = inhibition) at 10uM [%]"
1,COc1ccccc1-n1nnnc1SCC(=O)Nc1ccc(C)c(N)c1,19.9
2,COc1ccc(NC(=O)C2CC(=O)OC23CCCCC3)cc1 (centres unmarked),-10.7
3,COc1ccc(-c2cc(C(=O)N3CCN(c4ccccc4OC)CC3)no2)cc1,10.5
4,COc1cccc(/C=C/C(=O)c2ccc(NC3=NCCCS3)cc2)c1,-28.8
5,C/C(=N/NC(=O)CNC(=O)COc1cccc(C)c1)c1ccc(Cl)cc1,7.95
6,Nc1nc(N)c(N=Nc2ccc(Cl)cc2)c(=O)[nH]1,6.7
7,O=C(NCCN1CCN(c2ccccc2)CC1)Nc1cccc(Cl)c1,-55.7
8,CCn1nnc(NC(=O)c2ccc(Br)o2)n1,13.7
9,Cc1cc(NS(=O)(=O)c2c(C)c(C)cc(C)c2C)no1,1.18
10,NS(=O)(=O)c1ccc(CCNC(=O)C2CCC(CNS(=O)(=O)c3ccc(Br)s3)CC2)cc1 (centres unmarked),32.2
11,CCC1Oc2ccc(C)cc2N(CC(=O)NCCN2CCOCC2)C1=O (centres unmarked),2.28
12,Cc1nc2c(n1C1CCCCC1)C(=O)c1ccccc1C2=O,14.7
13,CC1CCN(c2ccc(NC(=O)c3cccnc3)cc2)CC1,-3.1
14,COc1ccc(NC(=O)Nc2ccc3c(c2)N(C)C(=O)CS3)cc1Cl,0.0848
15,Cc1ccc(C(c2nnnn2C2CCCCC2)N2CCc3ccccc32)cc1 (centres unmarked),1.37
16,Cn1nc(C(=O)Nc2nc(-c3ccc(F)cc3)cs2)ccc1=O,5.72
17,O=C(Cn1nc(Cc2cccnc2)c2ccccc2c1=O)NCc1ccc2c(c1)OCO2,-25.8
18,Cc1c(C(=O)N2CCCCC2)c(S(=O)(=O)N2CCN(c3ccccc3F)CC2)c(C)n1C,7.03
19,COc1ccc(C(=O)NCc2nnc(SCC(=O)c3ccccc3)n2C)cc1,-15.9
20,Cc1ccc(NC(=O)CS(=O)Cc2nc(-c3ccc(C)cc3)oc2C)cc1 (centres unmarked),-27.3
